From publication PMC6919601, “Identification of Plasmodium dipeptidyl aminopeptidase allosteric inhibitors by high throughput screening” (PLoS ONE, 2019)
About 230 (0.21%) of roughly 110,000 compounds showed an effect of 50% or more. The list shows a part of the results.

These compounds were tested against DPAP1 (Plasmodium falciparum, UniProt Q8IIJ9) (assay: primary screen, percent inhibition; read by cleavage of a fluorogenic dipeptide substrate; higher = more effect of the substance).
Design: species or system P. falciparum D10 trophozoite lysates; single well
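Also: 30 min substrate incubation versus DMSO and 10 µM JCP410 controls.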

Chain of DPAP1 (Q8IIJ9 whole entry, looked up): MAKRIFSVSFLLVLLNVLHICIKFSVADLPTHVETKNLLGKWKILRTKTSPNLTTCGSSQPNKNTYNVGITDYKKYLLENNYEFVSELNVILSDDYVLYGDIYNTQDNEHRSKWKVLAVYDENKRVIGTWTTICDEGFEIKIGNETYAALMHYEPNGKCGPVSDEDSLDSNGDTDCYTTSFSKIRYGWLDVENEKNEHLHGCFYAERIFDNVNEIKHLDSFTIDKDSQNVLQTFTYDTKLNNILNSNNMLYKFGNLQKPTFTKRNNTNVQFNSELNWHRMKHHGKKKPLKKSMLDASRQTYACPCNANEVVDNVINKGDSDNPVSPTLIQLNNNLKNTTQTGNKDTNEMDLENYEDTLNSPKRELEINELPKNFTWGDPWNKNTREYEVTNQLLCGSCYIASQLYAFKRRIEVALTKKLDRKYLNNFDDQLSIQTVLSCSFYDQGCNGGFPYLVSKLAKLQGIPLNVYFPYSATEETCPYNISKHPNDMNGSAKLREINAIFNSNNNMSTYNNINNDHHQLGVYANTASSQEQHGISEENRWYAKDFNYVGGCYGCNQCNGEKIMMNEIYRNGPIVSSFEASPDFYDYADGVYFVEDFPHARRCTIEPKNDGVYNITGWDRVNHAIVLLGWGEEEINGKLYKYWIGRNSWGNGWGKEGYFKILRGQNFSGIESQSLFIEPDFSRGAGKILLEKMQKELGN

| SMILES | % Inhibition @ 10 uM [%] |
| --- | --- |
| CNC(=O)/C=C1\NC(C)(C)Cc2ccccc21 | 0.815 |
| CC1CCN(S(=O)(=O)N2CCCC(C(=O)NCc3cccnc3)C2)CC1 (stereo not drawn) | 2.05 |
| CC(CCc1ccccc1)N1CCN(CCOCCO)CC1 (stereo not drawn) | -2.95 |
| Cc1ccc(CNC(=O)C2c3ccccc3C(=O)N3CCc4ccccc4C23)cc1 (stereo not drawn) | 5.88 |
| Cc1cccc2c1cnn2C(=O)CCC(=O)N1CCN(c2ccccn2)CC1 | -1.7 |
| CCOC(=O)N1CCC(NC(=O)Cn2ncc3c2-c2ccccc2OC3)CC1 | -4.21 |
| CCOc1cc2c(cc1OCC)C1C(C(=O)N(CC)Cc3ccccc3)c3ccccc3C(=O)N1CC2 (stereo not drawn) | 1.86 |
| CCOC(=O)c1c(-c2ccccc2)csc1NC(=O)c1noc2c1CCCC2 | -4.51 |
| COc1ccc(Cn2ccn(Cc3ccc(F)cc3)c(=O)c2=O)cc1 | -3.8 |
| CCCc1nn2c(=O)cc(COc3ccc(C=C(C#N)C#N)cc3OC)nc2s1 | -9.6 |
| CCOC(=O)c1c(CN2CCN(C)CC2)oc2cc(Br)c(OC)c(Br)c12 | -4.49 |
| Cc1cccc(C(=O)Nc2cc(C)ccc2C)c1 | 2.46 |
| Cc1csc(NC(=O)c2c(O)nc3ccccc3c2O)n1 | -2.78 |
| Cc1ccc(S(=O)(=O)NC(C)C(=O)NC2CCCC2)cc1 (stereo not drawn) | 1.27 |
| O=C(NC12CC3CC(CC(C3)C1)C2)N1CCN(CCO)CC1 | -3.63 |
| N#CC1=C(N)N(c2sc3c(c2C#N)C2CCN3CC2)C2=C(C(=O)CCC2)C1c1cccc(Cl)c1 (stereo not drawn) | 0.883 |
| N#CC1=C(N)Oc2cc(N)ccc2C1c1cccs1 (stereo not drawn) | 2.58 |
| C=C(C)[C@@H]1CC=C(CN(C)C2CCN(C)CC2)CC1 | -1.41 |
| Cc1ccc(C)c(OCC(=O)Nc2ccc(S(=O)(=O)N3CCC(C)CC3)cc2)c1 | -3.33 |
| C=CCC(C(=C)C)S(=O)(=O)c1ccc(C)cc1 (stereo not drawn) | -4.76 |
| COc1ccc2cc3c(N)nn(C(=O)Cc4c[nH]c5ccccc45)c3nc2c1 | 12.3 |
| c1csc(C2=NN3C(C2)c2ccccc2OC32CCCC2)c1 (stereo not drawn) | 3.43 |
| Cc1ccc(S(=O)(=O)N(C)CC(=O)NCCCc2ccccc2)cc1 | 0.795 |
| COc1ccc(F)cc1S(=O)(=O)N1CCCN(S(=O)(=O)c2cc(F)ccc2OC)CC1 | 3.81 |
| COc1ccc2c(c1)c(C)c(C)n2CCc1ccc(C)nc1 | -0.962 |

| SMILES | % Inhibition @ 10 uM [%] |
| --- | --- |
| Cc1[nH]c2ccccc2c1/C=C(\C#N)C(=O)NCc1ccccc1 | -5.2 |
| O=c1oc2ccccc2c(N2CCN(C3CCCCC3)CC2)c1CN1CCCC1 | -1.68 |
| COc1ccccc1CNC(=O)C1C2C=CC3(CN(Cc4cccs4)C(=O)C13)O2 (stereo not drawn) | -0.503 |
| Cc1c(C(=O)NC(C)c2ccccc2)oc2ccc3c(c12)C(=O)CC1(CCCC1)O3 (stereo not drawn) | 0.623 |
| O=C1c2cccc3cccc(c23)C(=O)N1CCCC(=O)N1CCc2ccccc21 | -5.31 |
| O=S(=O)(NCc1ccc(F)cc1)c1ccc(-c2ccc(O)nn2)s1 | 1.06 |
| O=C(O)C1C2C=CC(C2)C1C(=O)Nc1cccc(Br)c1 (stereo not drawn) | -0.0217 |
| CC(C)(C)C1CCC(N2CCC(O)CC2)CC1 (stereo not drawn) | -1.81 |
| Cc1ccccc1Cn1c(CNC(=O)C(C)(C)C)nc2ccccc21 | 6.66 |
| O=C(CO/N=C/c1ccccc1)Nc1nc2ccccc2s1 | -6.23 |
| N#Cc1cc2c(nc1Cl)CCCC2 | 2.03 |
| CSc1ncc(C(=O)N2CCN(Cc3ccccc3)CC2)c(C)n1 | 3.69 |
| CC(C)(C)OC(=O)N1CCN(S(=O)(=O)c2ccc(-n3cnnn3)cc2)CC1 | 4.18 |
| COc1ccc(/C=C2\S/C(=N/c3ccc(C(=O)O)cc3)N(C)C2=O)c(C)c1 | 9.14 |
| CCn1cc(C(=O)N2CCN(C(=O)c3ccco3)CC2)c2cc(OC)c(OC)cc2c1=O | 2.73 |
| CCOc1ccc(-c2c(C)s/c(=N\C(=O)c3cccnc3)n2C)cc1 | -7.89 |
| CCCCSc1nc(O)c2cnn(-c3ccc(C)cc3)c2n1 | -1.54 |
| Cc1noc(C)c1S(=O)(=O)N1CCC(C(=O)Nc2ccccn2)CC1 | -0.148 |
| CCN(Cc1ccccc1)S(=O)(=O)c1cc(-c2onc(C)c2C)ccc1C | -6.07 |
| CC1=C(CSCc2ccccc2)CS(=O)(=O)C1 | -6.36 |
| CCN(CC)S(=O)(=O)c1ccc(NC(=O)Cc2ccc(OC)cc2)cc1 | -7.46 |
| Cc1cc(C)n(CCc2nc3c4ccccc4nc(NCCCOC(C)C)n3n2)n1 | 0.981 |
| COc1cc(-c2noc(CCCC(=O)N3CCOCC3)n2)cc(OC)c1OC | -2.92 |
| CC(NC(=O)Cc1ccc(F)cc1)C(c1cccs1)N1CCOCC1 (stereo not drawn) | -4.74 |
| O=C1OC(c2ccco2)=N/C1=C\c1ccc(Cl)c(Cl)c1 | 5.94 |

| SMILES | % Inhibition @ 10 uM [%] |
| --- | --- |
| COc1ccc(C(=O)Nc2ccccc2C(C)C)cc1OC | -2.6 |
| N#CCNC(=O)C1(NC(=O)c2ccc(N3CCOCC3)cc2)CCc2ccccc2C1 (stereo not drawn) | 1.7 |
| CCOc1ccc(-c2cc(N)n(S(=O)(=O)c3cc(Cl)sc3Cl)n2)cc1 | 1.15 |
| CNS(=O)(=O)c1cn(CC(=O)NCc2ccc3c(c2)OCO3)cc1S(=O)(=O)NC | -4.18 |
| COc1ccc(OC)c([C@@H](O)C2CCCCN2C(C)=O)c1 (stereo partly drawn) | -0.95 |
| COc1ccc(C2CC(C(F)(F)F)n3nc(C(=O)N4CCN(C)CC4)c(Cl)c3N2)cc1 (stereo not drawn) | -8.3 |
| CCc1ccc(C2c3c(-c4ccccc4O)n[nH]c3C(=O)N2CCCO)cc1 (stereo not drawn) | 2.02 |
| O=C(c1ccc(N2CCN(CCO)CC2)nc1)N1CCOCC1 | -3.33 |
| O=C(CN1C(=O)c2cccc3cccc1c23)Nc1cccc2ccccc12 | 3.17 |
| O=C1C2CC=C(Cl)CC2C(=O)N1CCNC1CCCCC1 (stereo not drawn) | 3.05 |
| O=C(CSC1CC(=O)N(c2ccccc2F)C1=O)Nc1cccc(Cl)c1 (stereo not drawn) | -8.76 |
| CCN(CC)CCNC(=O)Cn1c(-c2ccccn2)nc2ccccc21 | -5.92 |
| CCOC(=O)c1c(NC(=O)C23CC4CC(CC(C4)C2)C3)sc(C(C)=O)c1C | -4.8 |
| CCOc1ccc(/C=c2/sc3nc(=O)c(Cc4ccc(F)cc4)nn3c2=O)cc1OCC | -0.499 |
| Oc1ccccc1-c1nc(-c2ccccc2)no1 | 4.03 |
| CCCN(CCO)Cc1c(F)cccc1Cl | 1.08 |
| COc1cccc(-n2cnc(=O)c3cccnc32)c1 | 0.245 |
| CCCOC(=O)c1cc(-c2ccccc2)nc2ccccc12 | -5.08 |
| COc1ccc(C(=O)NCCN2CCCC2)cc1OC | -2.66 |
| O=C(NCCNC(=O)c1ccncc1)c1ccncc1 | 1.54 |
| COc1ccccc1NC(=O)c1c(NC(=O)CN2CCCC(C)C2)sc2c1CCC2 (stereo not drawn) | 5.29 |
| Cc1ccc2occ(CC(=O)Nc3sc4c(c3C(=O)NCc3ccco3)CCCC4)c2c1 | 2.62 |
| O=C(Nc1nc[nH]n1)c1c(Cl)ccc(Cl)c1Cl | 4.86 |
| CCOc1ccccc1-c1noc(CCCC(=O)NCc2ccco2)n1 | -0.946 |
| COc1ccc2cc3cc(C(=O)NCCC4=CCCCC4)sc3nc2c1 | 3.07 |

| SMILES | % Inhibition @ 10 uM [%] |
| --- | --- |
| CC1(C)Cc2nc3[nH]nc(N)c3cc2CO1 | 3.54 |
| CC(C)N1C(=O)S/C(=C/c2ccc(Sc3nc4ccccc4[nH]3)o2)C1=O | 6.58 |
| Cn1c(=O)[nH]c2nc(-c3ccccc3)n(C)c2c1=O | 1.05 |
| COC(=O)c1c(C)nc2ccccc2c1C(=O)O | 3.67 |
| COc1cc(CNC(=O)CCn2nc(C)c3c(C)n(-c4ccccc4)nc3c2=O)cc(OC)c1OC | -4.77 |
| CCNc1sc(S(=O)(=O)c2ccccc2)nc1S(=O)(=O)c1ccc(C)cc1 | 0.401 |
| O=C(NCc1ccccn1)c1ccccc1Cl | 5.06 |
| O=C(c1ccc2nc(NC(=O)C34CC5CC(CC(C5)C3)C4)sc2c1)N1CCOCC1 | -6.02 |
| COCCNC(=O)C1CC(c2cc(OC)c(OC)c(OC)c2)=NO1 (stereo not drawn) | -3.94 |
| CC1CCN(C(=O)CSc2nnc(-c3cccs3)o2)CC1 | -0.999 |
| O=C(Cn1nc(Cc2cccnc2)c2ccccc2c1=O)NCc1ccc(F)cc1 | 0.44 |
| CC(CCc1ccccc1)N[C@H]1CC[C@H](O)CC1 (stereo partly drawn) | -5.11 |
| O=C(Cn1nnc2ccccc21)Nc1cccc(C(F)(F)F)c1 | -2.77 |
| CCOc1ccc(C2N3CC4(C)CN2CC(C)(C3)C4=O)cc1OC (stereo not drawn) | -3.08 |
| O=C(NCc1ccc(F)cc1Cl)c1coc(=O)c2ccccc12 | -3.31 |
| CC1(C)CC2=Nc3ccc4ncccc4c3C(c3ccccn3)C2=C(O)C1 (stereo not drawn) | 2.67 |
| CN(CC1CCCO1)C1CCN(S(=O)(=O)c2ccc(-c3cc(C(F)(F)F)no3)s2)CC1 (stereo not drawn) | -0.342 |
| COc1ccccc1CNC(=O)C1CCC(CNS(=O)(=O)c2cccc3cccnc23)CC1 (stereo not drawn) | -4.44 |
| Cc1noc(C)c1S(=O)(=O)N1CCC(C(=O)N(CCO)Cc2ccccc2)CC1 | 2.55 |
| COCCN1C(=O)c2ccccc2C(C(=O)NC2CCCCC2)C1c1cn(C)c2ccccc12 (stereo not drawn) | 3.51 |
| O=C(NCCc1ccc(Cl)cc1)C(NS(=O)(=O)c1cccs1)c1ccccc1 (stereo not drawn) | -4.79 |
| NC(=O)C1CCN(Cc2cccc(Cl)c2Cl)CC1 | 0.217 |
| CCOC(=O)c1cc(Br)ccc1-c1ccc(/C=C2\C(=O)NC(=O)C(C#N)=C2C)o1 | 2.17 |
| O=C(NCCN1CCOCC1)c1cc(-c2ccc(Cl)c(Cl)c2)nc2ccccc12 | 2.03 |
